# Source: paper PMC4336329 (PLoS ONE, 2015)
# Among all 310,000 compounds or so, about 14,000 (4.5%) showed an effect of 50% or more. Effects have a minus sign here. Some of the results follow.
# Target: human ether-à-go-go-related gene (hERG) potassium channel (human, UniProt Q12809)
# Experiment: primary screen, population patch clamp on CHO cells stably expressing hERG
# 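Also: peak tail current of the secondary pulse compared with the same well before compound.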
# Sequence of human ether-à-go-go-related gene (hERG) potassium channel (Q12809 whole entry, looked up): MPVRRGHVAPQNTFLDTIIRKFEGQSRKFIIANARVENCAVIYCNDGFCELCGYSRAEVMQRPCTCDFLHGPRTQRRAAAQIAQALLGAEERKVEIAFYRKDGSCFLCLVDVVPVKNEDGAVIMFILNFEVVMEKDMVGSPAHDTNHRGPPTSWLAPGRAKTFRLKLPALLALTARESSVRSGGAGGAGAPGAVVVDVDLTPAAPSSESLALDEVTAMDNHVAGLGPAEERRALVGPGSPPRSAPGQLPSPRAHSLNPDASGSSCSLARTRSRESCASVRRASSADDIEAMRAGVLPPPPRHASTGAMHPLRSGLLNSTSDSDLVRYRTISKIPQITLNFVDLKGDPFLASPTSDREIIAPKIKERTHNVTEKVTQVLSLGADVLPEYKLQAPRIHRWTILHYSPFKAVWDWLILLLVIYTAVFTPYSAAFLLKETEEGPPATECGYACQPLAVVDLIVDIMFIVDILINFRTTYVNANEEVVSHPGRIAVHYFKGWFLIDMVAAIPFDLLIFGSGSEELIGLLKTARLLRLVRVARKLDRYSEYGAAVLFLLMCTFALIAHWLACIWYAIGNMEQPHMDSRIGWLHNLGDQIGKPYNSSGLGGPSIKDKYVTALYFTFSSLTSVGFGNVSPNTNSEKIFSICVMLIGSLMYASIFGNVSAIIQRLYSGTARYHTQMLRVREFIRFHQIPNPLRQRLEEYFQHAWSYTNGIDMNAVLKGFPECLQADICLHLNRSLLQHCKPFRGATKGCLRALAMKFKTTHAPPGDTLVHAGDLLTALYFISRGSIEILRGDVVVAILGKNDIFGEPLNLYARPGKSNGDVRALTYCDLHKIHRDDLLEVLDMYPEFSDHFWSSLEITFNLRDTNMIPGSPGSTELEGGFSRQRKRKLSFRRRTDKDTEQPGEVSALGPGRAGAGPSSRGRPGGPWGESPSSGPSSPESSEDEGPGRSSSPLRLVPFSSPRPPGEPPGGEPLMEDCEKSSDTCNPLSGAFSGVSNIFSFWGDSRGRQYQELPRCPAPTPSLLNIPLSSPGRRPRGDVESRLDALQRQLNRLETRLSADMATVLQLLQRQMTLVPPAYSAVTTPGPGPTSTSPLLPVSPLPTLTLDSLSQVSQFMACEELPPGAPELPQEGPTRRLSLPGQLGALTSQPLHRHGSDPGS
row,Structure (SMILES),"hERG current change (%, negative = inhibition) at 10uM [%]"
1,C=C1CC(C(=O)N/N=C/c2ccc(O)cc2)C1,-2.57
2,O=C(C1CC(c2ccccc2O)=NO1)N1CCCC1 (centres unmarked),-2.65
3,Cc1ccc(-n2ncc3c(=O)n(-c4ccc(C)c(C)c4)c(C)nc32)cc1,6.76
4,COc1cc(CN2CCCC(CO)(Cc3ccccc3F)C2)ccc1O (centres unmarked),-22.5
5,O=C(NC1CCCCC1)C(c1ccc(F)cc1)N(Cc1ccco1)C(=O)Cn1nnc2ccccc21 (centres unmarked),2.6
6,CC(=O)Nc1ccc2c(c1)ncn2C,22.2
7,COc1c(C)cc(C(=O)C2CCCN(C(=O)c3cccc(-n4cccn4)c3)C2)cc1C (centres unmarked),-34
8,CO/N=C/C1C(=O)NN=C1c1ccccc1 (centres unmarked),7.12
9,CC(C)COC(=O)OCN1C(=O)CN(CCN2CC(=O)N(COC(=O)OCC(C)C)C(=O)C2)CC1=O,-28.3
10,O=C1Nc2cc(Cl)c(Cl)cc2N(O)N1c1ccccc1Cl,11.1
11,CC(Oc1ccc(Br)cc1)C(=O)NCC(C)(C)N1CCOCC1 (centres unmarked),-26
12,COc1ccc(NC2CCCN(C(=O)CCCN3CCCCC3=O)C2)cc1 (centres unmarked),11.5
13,COc1ccc(C2=NOC(C)(c3nnc(-c4ccccc4)o3)C2)cc1 (centres unmarked),-58.3
14,COc1ccc(CN2CCN(C(=O)CN3C(=O)C4C5C=CC(C5)C4C3=O)CC2)c(OC)c1OC (centres unmarked),4.91
15,CC1=C(c2ccccc2)[N+](=O)C2(CCCCC2)N1[O-],-4.49
16,O=C(C1CCN(c2nc3ccc(Br)cc3s2)CC1)N1CCC2(CC1)OCCO2,-62.3
17,COc1ccccc1-n1cc(CN2CCN(C3CCCCC3)C(CCO)C2)cn1 (centres unmarked),-11.4
18,COc1ccc(Nc2nnc(Cc3ccncc3)c3ccccc23)c(OC)c1,-72.7
19,O=C(O)c1ccc(NC(=O)c2cn(-c3ccccc3)nc2-c2ccc(F)cc2)cc1,17.5

row,Structure (SMILES),"hERG current change (%, negative = inhibition) at 10uM [%]"
1,CC(C)N(Cc1ccccc1)C(=S)NCc1ccccc1,-15
2,O=c1oc(-c2ccc([N+](=O)[O-])cc2)nc2ccc(O)cc12,-1.05
3,COc1ccc(C(C(=O)NC(C)(C)C)N(Cc2ccco2)C(=O)CCC(=O)Nc2cc(C)on2)cc1 (centres unmarked),0.256
4,COc1cc2c(cc1OC)C(c1ccccc1F)OC(=O)C2 (centres unmarked),6.96
5,Cc1cc(C)cc(NC(=O)CCn2ccnc2C)c1,-8.43
6,COc1ccccc1N1C(=O)c2cccnc2C1=O,4.99
7,CCOc1ccccc1-n1c(SCC(=O)N(C(C)C)C(C)C)nnc1-c1cccnc1,0.996
8,Cc1cc(C)nc(NS(=O)(=O)c2ccc(NC(=O)Cn3c(=O)oc4ccccc43)cc2)n1,12.1
9,Cc1cc(C)cc(NC(=O)CSc2nccn2Cc2ccco2)c1,-9.2
10,Oc1ccc[nH+]c1SCc1ccccc1.[Br-],12.7
11,O=C(NCc1ccc(Cl)cc1)c1cc(S(=O)(=O)N2CCCCC2)c[nH]1,-7.98
12,COCCNC(=O)CN1C(=O)COc2ccc(S(=O)(=O)N3CC(C)CC(C)C3)cc21 (centres unmarked),2.77
13,O=C(c1cccs1)N1CCC(N2CCN(c3ccccc3)CC2)CC1,-51.2
14,C/C(=C\C(=O)c1sccc1Cl)N(C)C,0.12
15,O=C(CN1C(=O)/C(=C/c2ccc(F)cc2)SC1=S)N1CCN(CCc2ccccn2)CC1,-32.4
16,CCCOc1ccc(NC(=O)CC2C(=O)OCC3CCCCN32)cc1 (centres unmarked),-4.12
17,c1ccc(C(c2nnnn2C2CCCCC2)N2CCc3ccccc3C2)nc1 (centres unmarked),-14.7
18,CS(=O)(=O)N(CC(=O)Nc1ccc(S(=O)(=O)N2CCOCC2)cc1)c1cccc(F)c1,-9.72
19,Cc1ccccc1Nc1nc(N)nc(COC(=O)[C@@H](NC(=O)c2ccccc2Cl)C(C)C)n1,-36.8

row,Structure (SMILES),"hERG current change (%, negative = inhibition) at 10uM [%]"
1,CCNS(=O)(=O)c1ccc(C(=O)Nc2ccccc2)cc1,0.0275
2,COc1ccc(S(=O)(=O)N2CCCC(C(=O)Nc3ccc(OC)c(OC)c3)C2)cc1 (centres unmarked),7.61
3,O=C(CSc1nnc(NC(=O)c2ccco2)s1)Nc1ccc(F)cc1F,0.396
4,CCOc1ccc(C2NC(=O)NC(C)=C2C(=O)OC)cc1C (centres unmarked),0.776
5,O=C(Nc1ccc(OC(F)(F)F)cc1)C1CC(=O)N(Cc2ccco2)C1 (centres unmarked),-30
6,Cc1ccc(NC(=O)CCNS(=O)(=O)c2cc(Br)cnc2N)cc1Cl,-4.41
7,CN(C)C(=O)N1CCCC(C(=O)NCCc2ccccc2)C1 (centres unmarked),3.99
8,O=C1NCCN(Cc2ccc(-c3ccccc3)cc2)C1CC(=O)N1CCN(CCO)CC1 (centres unmarked),32.9
9,O=C(Nc1ccccn1)c1ccc2c(c1)OCO2,8.93
10,CC1CCN(S(=O)(=O)c2ccc3[nH]c(=O)ccc3c2)CC1,-5.5
11,CCCCn1c(N)c(N(CC)C(=O)c2cc3c(s2)CCCCC3)c(=O)[nH]c1=O,0.737
12,CC1CCN(CCNC(=O)C2CCCN(S(=O)(=O)c3cccc4nonc34)C2)CC1 (centres unmarked),-25.7
13,CN(C)c1ncc(S(=O)(=O)c2ccccc2)c(N)n1,28.3
14,O=S(=O)(NC1CCCCC1)c1ccc(S(=O)(=O)N2CCN3CCCC3C2)cc1 (centres unmarked),-4.12
15,COc1ccc(CN(C)CC(=O)Nc2c(C)cccc2C)c(OC)c1,-26.1
16,Cc1cc(O)c2c(-c3ccccc3)cc(=O)oc2c1,-11.4
17,N#CC(C#N)=Cc1c(N2CCN(c3ccccc3)CC2)nc2ccccn2c1=O,-7.31
18,COc1ccccc1N(Cc1ccccc1)S(=O)(=O)c1cccc(C(=O)Nc2ccccn2)c1,10.5
